# Measured values published in patent US20260207767A1 (ANAVEON, published 2026).
# T1: IL-2R CD122-CD132 on Jurkat-PD1+CD122+ cells (UniProt P14784 27-551; P31785 23-369)
# T1 sequence (looked up) 1: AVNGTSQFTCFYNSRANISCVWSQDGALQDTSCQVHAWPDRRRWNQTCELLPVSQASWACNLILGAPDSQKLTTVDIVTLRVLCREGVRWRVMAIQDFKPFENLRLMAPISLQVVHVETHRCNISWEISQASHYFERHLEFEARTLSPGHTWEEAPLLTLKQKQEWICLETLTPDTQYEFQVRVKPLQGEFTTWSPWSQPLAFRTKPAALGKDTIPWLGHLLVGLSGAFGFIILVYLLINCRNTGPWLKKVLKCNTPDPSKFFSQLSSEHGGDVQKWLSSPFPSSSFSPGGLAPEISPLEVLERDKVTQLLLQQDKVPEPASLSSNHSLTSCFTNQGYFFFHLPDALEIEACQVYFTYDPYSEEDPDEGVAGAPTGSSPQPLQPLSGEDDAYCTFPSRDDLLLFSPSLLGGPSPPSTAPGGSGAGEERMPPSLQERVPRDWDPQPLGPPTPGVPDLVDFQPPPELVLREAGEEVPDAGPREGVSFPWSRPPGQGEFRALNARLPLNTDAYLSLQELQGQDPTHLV
# T1 sequence (looked up) 2: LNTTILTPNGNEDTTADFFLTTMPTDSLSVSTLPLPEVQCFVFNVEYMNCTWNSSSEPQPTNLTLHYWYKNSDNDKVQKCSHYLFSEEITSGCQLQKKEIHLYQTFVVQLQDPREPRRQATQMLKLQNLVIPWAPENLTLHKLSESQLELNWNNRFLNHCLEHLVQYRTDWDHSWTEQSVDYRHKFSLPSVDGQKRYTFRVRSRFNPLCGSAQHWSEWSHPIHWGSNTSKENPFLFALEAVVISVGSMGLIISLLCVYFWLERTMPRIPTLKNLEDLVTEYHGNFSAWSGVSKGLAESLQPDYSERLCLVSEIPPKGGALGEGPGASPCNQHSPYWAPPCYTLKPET
# T2: high affinity trimeric IL-2R on CD4+CD25+FoxP3+ Treg cells of murine splenocytes (mouse, UniProt P01590 22-268; P16297 27-539; P34902 23-369)
# T2 sequence (looked up) 1: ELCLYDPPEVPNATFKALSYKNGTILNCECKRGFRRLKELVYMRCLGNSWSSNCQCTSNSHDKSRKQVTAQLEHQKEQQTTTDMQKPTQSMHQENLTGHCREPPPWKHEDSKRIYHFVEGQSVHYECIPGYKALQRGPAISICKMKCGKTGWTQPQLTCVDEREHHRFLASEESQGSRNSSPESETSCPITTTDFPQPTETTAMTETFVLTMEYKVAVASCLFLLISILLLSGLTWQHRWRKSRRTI
# T2 sequence (looked up) 2: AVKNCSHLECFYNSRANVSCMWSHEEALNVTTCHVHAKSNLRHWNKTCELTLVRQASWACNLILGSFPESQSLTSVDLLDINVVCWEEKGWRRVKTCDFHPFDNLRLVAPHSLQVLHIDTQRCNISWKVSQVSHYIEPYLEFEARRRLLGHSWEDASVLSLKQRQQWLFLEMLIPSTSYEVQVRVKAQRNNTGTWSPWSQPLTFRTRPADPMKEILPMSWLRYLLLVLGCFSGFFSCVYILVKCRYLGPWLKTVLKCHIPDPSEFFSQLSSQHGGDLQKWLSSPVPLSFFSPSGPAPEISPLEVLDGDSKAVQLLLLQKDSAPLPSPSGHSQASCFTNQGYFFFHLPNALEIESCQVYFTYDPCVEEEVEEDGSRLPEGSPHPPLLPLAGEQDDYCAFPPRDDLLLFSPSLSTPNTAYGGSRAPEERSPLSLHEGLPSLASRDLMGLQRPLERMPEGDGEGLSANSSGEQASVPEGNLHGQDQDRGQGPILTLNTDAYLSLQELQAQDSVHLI
# T2 sequence (looked up) 3: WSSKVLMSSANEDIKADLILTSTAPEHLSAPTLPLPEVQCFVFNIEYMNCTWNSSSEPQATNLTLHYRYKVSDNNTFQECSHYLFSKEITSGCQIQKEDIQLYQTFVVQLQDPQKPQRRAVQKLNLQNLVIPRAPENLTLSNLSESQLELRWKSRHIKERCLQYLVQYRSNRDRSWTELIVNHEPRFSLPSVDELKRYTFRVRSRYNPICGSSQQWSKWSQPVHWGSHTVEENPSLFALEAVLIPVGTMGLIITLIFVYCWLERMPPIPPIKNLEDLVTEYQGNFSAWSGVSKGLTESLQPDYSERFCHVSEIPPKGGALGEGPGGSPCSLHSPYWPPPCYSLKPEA
# T3: trimeric IL-2 receptor (CD25/CD122/CD132) on HEK-Blue IL-2 reporter cells (UniProt P01589 22-272; P14784 27-551; P31785 23-369, limits assumed)
# T3 sequence (looked up) 1: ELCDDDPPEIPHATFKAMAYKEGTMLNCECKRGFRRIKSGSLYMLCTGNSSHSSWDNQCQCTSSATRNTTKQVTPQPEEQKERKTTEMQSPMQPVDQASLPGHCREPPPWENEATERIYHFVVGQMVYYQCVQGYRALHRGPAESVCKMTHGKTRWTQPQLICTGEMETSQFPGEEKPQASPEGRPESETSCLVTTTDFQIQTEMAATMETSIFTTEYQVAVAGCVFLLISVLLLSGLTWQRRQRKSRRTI
# T3 sequence (looked up) 2: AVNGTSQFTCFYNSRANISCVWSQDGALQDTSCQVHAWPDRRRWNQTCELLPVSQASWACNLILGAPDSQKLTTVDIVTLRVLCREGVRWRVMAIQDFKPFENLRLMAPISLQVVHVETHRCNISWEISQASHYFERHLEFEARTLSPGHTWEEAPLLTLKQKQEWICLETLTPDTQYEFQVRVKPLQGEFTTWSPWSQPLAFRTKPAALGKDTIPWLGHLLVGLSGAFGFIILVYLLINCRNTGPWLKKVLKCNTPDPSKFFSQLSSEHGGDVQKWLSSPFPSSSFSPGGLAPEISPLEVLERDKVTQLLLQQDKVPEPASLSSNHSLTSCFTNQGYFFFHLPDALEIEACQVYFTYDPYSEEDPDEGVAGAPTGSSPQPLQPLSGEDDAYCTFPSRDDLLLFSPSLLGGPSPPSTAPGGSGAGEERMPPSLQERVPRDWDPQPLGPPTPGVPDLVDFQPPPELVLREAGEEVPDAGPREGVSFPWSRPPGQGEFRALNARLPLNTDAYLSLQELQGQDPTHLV
# T3 sequence (looked up) 3: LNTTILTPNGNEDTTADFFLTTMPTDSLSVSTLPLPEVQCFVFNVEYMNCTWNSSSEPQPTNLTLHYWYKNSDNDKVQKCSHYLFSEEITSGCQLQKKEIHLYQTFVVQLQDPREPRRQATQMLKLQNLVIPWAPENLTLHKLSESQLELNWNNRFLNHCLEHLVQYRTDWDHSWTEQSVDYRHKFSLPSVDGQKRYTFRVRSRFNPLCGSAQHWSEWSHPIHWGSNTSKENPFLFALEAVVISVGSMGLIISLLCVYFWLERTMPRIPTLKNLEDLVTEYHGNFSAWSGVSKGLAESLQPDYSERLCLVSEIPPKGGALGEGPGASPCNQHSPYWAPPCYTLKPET
# T4: His-tagged recombinant CD25 (UniProt P01589 22-213, limits assumed)
# T4 construct: also called IL-2R alpha chain
# T4 sequence (looked up): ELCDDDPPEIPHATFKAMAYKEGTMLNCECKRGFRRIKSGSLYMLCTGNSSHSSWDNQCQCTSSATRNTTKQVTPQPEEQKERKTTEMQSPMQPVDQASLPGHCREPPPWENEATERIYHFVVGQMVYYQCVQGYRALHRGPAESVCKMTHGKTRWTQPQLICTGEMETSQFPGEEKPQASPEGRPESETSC
# Legend:
# [1] = biological target: anti-IL-2 antibody clone 5344; assay: ELISA on clone 5344
# [2] = biological target: T1, IL-2R CD122-CD132 on Jurkat-PD1+CD122+ …; assay: cell-based or functional assay
# [3] = biological target: T5, IL-2R on NK cells and CD8+ T cells of murine splenocytes (C57BL/6) (mouse); assay: cell-based or functional assay
# [4] = biological target: T2, high affinity trimeric IL-2R on …; assay: cell-based or functional assay
# [5] = biological target: T3, trimeric IL-2 receptor …; assay: cell-based or functional assay
# [6] = biological target: T4, His-tagged recombinant CD25; assay: SPR, CD25 captured
# [7] = biological target: T5, IL-2R on NK cells and CD8+ T cells of …; assay: cell-based or functional assay; remark: listed apart in the source
# [8] = biological target: T2, high affinity trimeric IL-2R on …; assay: cell-based or functional assay; remark: listed apart in the source
EC50 [1],"EC50 value for pSTAT5 induction, Jurkat-PD-1+CD122+ cells [2]","EC50 CD8 cells (nM), pSTAT5 [3]","EC50 NK cells (nM), pSTAT5 [3]","EC50 Treg cells (nM), pSTAT5 [4]","EC50, HEK Blue IL-2 reporter assay (SEAP) [5]",binding result [6],EC50 pSTAT5 on CD8 cells (nM) [7],EC50 pSTAT5 on NK cells (nM) [7],EC50 pSTAT5 on Treg cells (nM) [8],Binder
0.14 nM,1.07 nM,4.6 nM,1.2 nM,5.91 nM,0.00322 nM,no binding (tested: 500 nM),17.9 nM,2.88 nM,4.21 nM,"QTY065 (other, also called Antibody A-IL-2 fusion protein; untargeted bivalent antibody-IL-2 fusion) heavy: EVQLVQSGAEVKKPGESLKISCKGSGYAFTNYLIEWVRQMPGKGLEWMGVINPGSGGTNYNEKFKGQVTISADKSISTAYLQWSSLKASDTAMYYCARWRGEGYYAYFDVWGQGTTVTVSSASTKGPSVFPLAPSSKSTSGGTAALGCLVKDYFPEPVTVSWNSGALTSGVHTFPAVLQSSGLYSLSSVVTVPSSSLGTQTYICNVNHKPSNTKVDKRV[not shown - human IgG1 Fc with changes] light: AIRLTQSPSSFSASTGDRVTITCKASQSVDYGGGNFHLRPRDLISNINVIVLELKGSETTFMCEYADETATIVEFLNRWITFSQSIISTLTPTSSSTKKTQLQLEHLLLDLQMILNGINNYKNPKLTRMLTFKFYMPKKATELKHLQCLEEELKPLEEVLNLAQSKGGGGDSYMNWYQQKPGKAPKLLIYAASNLESGVPSRFSGSGSGTDFTLTISSLQSEDFATYYCQQSNEDPYTFGGGTKVEIKRTVAAPSVFIFPPSDEQLKSGTASVVCLLNNFYPREAKVQWKVDNALQSGNSQESVTEQDSKDSTYSLSSTLTLSKADYEKHKVYACEVTHQGLSSPVTKSFNRGEC"
0.15 nM,,16 nM,1.9 nM,16 nM,0.00366 nM,no binding (tested: 500 nM),,,,"EPK959 (other, Antibody B IgG with IL-2CP in CDR-L1) heavy: QVQLVESGGGVVQPGRSLRLSCAASGYTFSSYLIEWVRQAPGKGLEWVAVINPGSGGTNYADSVKGRFTISADKSKNTAYLQMNSLRAEDTAVYYCARWRGDGYYAYFDVWGQGTTVTVSSASTKGPSVFPLAPSSKSTSGGTAALGCLVKDYFPEPVTVSWNSGALTSGVHTFPAVLQSSGLYSLSSVVTVPSSSLGTQTYICNVNHKPSNTKVDKRV[not shown - human IgG1 Fc with changes] light: EIVLTQSPATLSVSPGERATLSCRASQSVSYNFHLRPRDLISNINVIVLELKGSETTFMCEYADETATIVEFLNRWITFSQSIISTLTPTSSSTKKTQLQLEHLLLDLQMILNGINNYKNPKLTRMLTFKFYMPKKATELKHLQCLEEELKPLEEVLNLAQSKGDSYMNWYQQKPGQAPRLLIYAASNLASGIPARFSGSGSGTEFTLTISSLQSEDAAVYYCQQSNEDPYTFGGGTKVEIKRTVAAPSVFIFPPSDEQLKSGTASVVCLLNNFYPREAKVQWKVDNALQSGNSQESVTEQDSKDSTYSLSSTLTLSKADYEKHKVYACEVTHQGLSSPVTKSFNRGEC"
